Test results published in PubChem BioAssay AID504339 (National Center for Advancing Translational Sciences (NCATS), 2011).
Hit rate of the full screen: of about 390,000 compounds, about 17,000 (4.4%) were called active. The inconclusive results got no clear call from the source; some entries with a clear call stand among them for comparison. The call rests on the fitted dose curve; in most records, active means well fitted inhibition curve with a large enough effect; inconclusive means small, poorly fitted or top-dose-only effect; inactive means no such curve, though single readings can be large or run the other way. Where the call is inconclusive, the potency comes from a doubtful curve fit.

Target: Lysine-specific demethylase 4A (Homo sapiens) (UniProt O75164)
Test: qHTS Assay for Inhibitors of JMJD2A-Tudor Domain; further: nearly all actives have a fitted effect of over 50% in size
Details: AlphaScreen JMJD2A-Tudor / H3K4me3 peptide binding; series mostly up to 114 µM
Potency means the concentration at half of the fitted maximal effect; tags describe the fitted curve by direction and shape.

Sequence of UniProt O75164 (O75164 whole entry, looked up, the tested form may be a part): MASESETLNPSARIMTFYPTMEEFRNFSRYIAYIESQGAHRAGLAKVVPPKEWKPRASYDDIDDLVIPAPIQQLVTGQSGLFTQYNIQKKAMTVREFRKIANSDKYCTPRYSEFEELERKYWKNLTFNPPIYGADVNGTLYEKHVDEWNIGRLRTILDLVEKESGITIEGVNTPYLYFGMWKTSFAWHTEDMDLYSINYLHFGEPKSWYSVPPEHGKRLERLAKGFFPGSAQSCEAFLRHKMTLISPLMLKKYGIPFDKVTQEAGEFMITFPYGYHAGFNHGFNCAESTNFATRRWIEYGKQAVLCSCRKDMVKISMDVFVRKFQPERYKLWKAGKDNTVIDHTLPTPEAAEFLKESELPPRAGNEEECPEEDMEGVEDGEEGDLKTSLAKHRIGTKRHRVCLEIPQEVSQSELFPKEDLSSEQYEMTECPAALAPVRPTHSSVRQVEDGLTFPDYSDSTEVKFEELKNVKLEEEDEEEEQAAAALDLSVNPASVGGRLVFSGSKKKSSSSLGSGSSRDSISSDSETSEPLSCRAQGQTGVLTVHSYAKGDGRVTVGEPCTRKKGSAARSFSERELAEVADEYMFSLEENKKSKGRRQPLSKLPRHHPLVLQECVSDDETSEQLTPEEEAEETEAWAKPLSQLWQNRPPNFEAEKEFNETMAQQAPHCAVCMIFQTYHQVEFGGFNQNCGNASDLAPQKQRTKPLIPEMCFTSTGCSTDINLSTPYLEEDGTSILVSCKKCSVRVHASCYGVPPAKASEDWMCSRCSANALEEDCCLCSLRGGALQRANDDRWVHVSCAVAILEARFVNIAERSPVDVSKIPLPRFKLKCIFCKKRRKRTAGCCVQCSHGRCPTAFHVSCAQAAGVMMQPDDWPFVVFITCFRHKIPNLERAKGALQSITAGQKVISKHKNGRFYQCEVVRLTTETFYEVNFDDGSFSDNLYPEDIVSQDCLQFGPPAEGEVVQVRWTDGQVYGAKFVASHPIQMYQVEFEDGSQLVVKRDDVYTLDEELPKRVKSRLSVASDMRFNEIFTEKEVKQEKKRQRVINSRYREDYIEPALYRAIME

Potency, inactive:
CC(=O)c1cccc(NC(=O)NNC(=O)c2ccc(-c3ccccc3)cc2)c1, COC(=O)CSc1nsc(SCC(=O)OC)n1, O=C(NNC(=O)c1ccc(Br)o1)c1ccc(NC(=O)c2ccccc2)cc1, CCN(CC)CCC(O)(c1ccc2c(c1)OCO2)c1cc(OC)c(OC)c(OC)c1 (stereo unspecified), CC(=O)Nc1ncc(N=Nc2cccc(C(F)(F)F)c2)s1, COC(=O)c1ccc(CSc2nc3ccccc3c(=O)n2Cc2ccco2)o1, O=C(COc1ncnc2ccccc12)NCc1ccc2c(c1)OCO2, CCC(=O)NC(c1ccc(C)cc1)c1cc(Cl)c2cccnc2c1O (stereo unspecified), C[n+]1ccccc1/C=C/c1ccccc1Cl, COc1cc(CNCCO)ccc1OCCc1ccccc1, COc1ccccc1C(=O)Nc1nsc(-c2ccccc2)n1, C#CCOCCOCCOCCNc1nc(N2CCOCC2)nc(N2CCN(C(=O)[C@H](Cc3ccc(O)cc3)n3cc([C@@H](N)CC(C)C)nn3)CC2)n1, COc1cc(NC(=O)CSc2nnc3c(C)cc4c(C)ccc(C)c4n23)c(C(=O)O)cc1OC, COc1ccccc1N(CC(O)Cn1c(C)nc2ccccc21)S(=O)(=O)c1ccccc1 (stereo unspecified), COc1cc(CCCN2C(=S)NC[C@@H]2CC2CCCCC2)cc(OC)c1OC, Cc1cccc(-n2cc(-c3ccc([N+](=O)[O-])cc3)[nH]c2=S)c1

Potency, inconclusive:
CC(C)(C)OC(=O)N1CCC(c2c(C(=O)N3CCC(c4ccccc4)C3)cnn2-c2cccc(Cl)c2)CC1 (stereo unspecified) 79.4 µM [inhibitor, partial curve], O=C1CCN(C(=O)CSc2ccc(Cl)cc2)N1 14.1 µM [inhibitor, partial curve], Cc1ccc(N(CCCCN2C(=O)c3ccccc3C2=O)C(=O)c2cccc([N+](=O)[O-])c2)cc1 8.91 µM [inhibitor, full curve, poor fit], Cc1cccc(/C=C2\CS/C(=C\c3cccc(C)c3)C2=O)c1 3.55 µM [inhibitor, full curve], CC1CC/C(=C\c2ccc3c(c2)OCO3)C(=O)/C1=C/c1ccc2c(c1)OCO2 (stereo unspecified) 28.2 µM [inhibitor, full curve], O=C(Nc1ccc(-c2cn3ccccc3n2)cc1)c1cccs1 39.8 µM [inhibitor, partial curve], COc1ccc(N2CCN(c3ccc(NC(=O)NN)cc3)CC2)cc1 28.2 µM [inhibitor, full curve], O=C(CSc1nccn1-c1ccc(F)cc1)Nc1ccc2c(c1)OCO2 56.2 µM [inhibitor, partial curve], COc1ccc(-c2n[nH]c(=S)n2-c2ccc(C)cc2C)cc1 22.4 µM [inhibitor, partial curve, poor fit], O=C(Cn1c(C(=O)NCc2ccco2)cc2sccc21)c1ccccc1 50.1 µM [inhibitor, partial curve], Cc1cc(C)nc(-n2nc(C)cc2NC(=O)c2cccc(S(=O)(=O)N3CCOCC3)c2)n1 63.1 µM [inhibitor, partial curve, poor fit], CC(C)NC(=O)NC(=O)COc1ncnc2sccc12 39.8 µM [inhibitor, single point], Oc1ccc(C(=S)N2CCN(Cc3ccccc3)CC2)cc1 79.4 µM [inhibitor, partial curve], O=C(CSc1nnnn1-c1ccc(F)cc1)c1ccc(O)c(O)c1 25.1 µM [inhibitor, full curve], CCN1C(=O)[C@@H]2[C@@H](c3ccc(-c4cccc(Cl)c4)cc3)N3CCC[C@@]3(C(=O)OC)[C@@H]2C1=O 56.2 µM [inhibitor, partial curve], O=C1CCCc2nc(N3CCCCC3)sc21 89.1 µM [inhibitor, single point], O=C(Nc1ccccc1F)c1cc(-c2ccco2)nc2ccccc12 50.1 µM [inhibitor, partial curve], CCOCCCN(C)C1CCN(C(=O)c2oc3ccccc3c2NC(=O)c2ccc([N+](=O)[O-])cc2)CC1 44.7 µM [inhibitor, partial curve], Cc1sc(NCc2ccccc2)nc1-c1ccccc1 89.1 µM [inhibitor, partial curve], COc1ccc(-c2sc3ccc(N4CCOCC4)cc3c2C#CC2(O)CCCCC2)cc1 50.1 µM [inhibitor, partial curve], CN1CCN(C(=S)c2cn(Cc3ccccc3)c3ccccc23)CC1 56.2 µM [inhibitor, single point], COc1cc(OC)nc(NC(=S)NC(=O)c2ccccc2)n1 25.1 µM [inhibitor, single point], Cc1ccc2nsnc2c1S(=O)(=O)Nc1ccccc1C(=O)O 100 µM [inhibitor, single point], COC(=O)COn1c(-n2nc(C)cc2C)nc2ccccc2c1=O 20 µM [inhibitor, partial curve], Cc1[nH]n(C(N)=S)c(=O)c1N=Nc1cccc([N+](=O)[O-])c1C 79.4 µM [inhibitor, partial curve], COc1ccc2[nH]c3c(c2c1)CCN1C(=O)C(CC(=O)NCc2ccc(OC)c(OC)c2)C[C@H](C(=O)N2CCCCC2)[C@@]31CCc1ccccc1 (stereo partly specified) 44.7 µM [inhibitor, partial curve], COc1ccccc1NCc1nnc(SCC(=O)N/N=C/c2ccco2)n1-c1ccc(Cl)cc1Cl 79.4 µM [inhibitor, single point], CCOC(=O)c1c(S(=O)(=O)NCC(=O)Nc2cccc(SC)c2)c(C)n(C)c1C 89.1 µM [inhibitor, partial curve], CCOC(=O)C1=C(C)N=c2s/c(=C/c3ccco3)c(=O)n2C1c1cccc(OC)c1 (stereo unspecified) 35.5 µM [inhibitor, partial curve], CN(C)c1ccc(/C=N/NC(=O)C(O)(c2ccccc2)c2ccccc2)o1 70.8 µM [inhibitor, partial curve, poor fit], C=CCn1c(SCC(=O)c2ccc(O)c(O)c2)nnc1-c1ccc(C)cc1 50.1 µM [inhibitor, partial curve], Fc1cccc(CSc2nc3ncc(Cl)cc3[nH]2)c1 39.8 µM [inhibitor, single point], O=C(COC(=O)c1ccccc1)NCc1ccco1 11.2 µM [inhibitor, full curve], O=C1/C(=C/c2cccs2)SC(=S)N1N1CCOCC1 8.91 µM [inhibitor, full curve, poor fit], Cc1ccc(N=Nc2ccc(O)c3ncccc23)cc1C 10 µM [inhibitor, full curve], Cc1c(C)n(C)c2ccc(C(=O)NCCCN3CCCC3)cc12 50.1 µM [inhibitor, partial curve], CCc1cc(-c2nc(N)ncc2-c2csc(C)n2)c(O)cc1OC 35.5 µM [inhibitor, partial curve], Oc1ccc(/C=N/Nc2cccc3cccnc23)c(O)c1 39.8 µM [inhibitor, partial curve], Brc1ccc(CN2CCc3nc(Nc4ccccc4)ncc3C2)s1 20 µM [inhibitor, full curve], Cc1ccccc1-n1c(-c2ccc(=O)[nH]n2)n[nH]c1=S 17.8 µM [inhibitor, full curve], CCc1ccc(NC(=O)COC(=O)/C=C/c2ccco2)cc1 25.1 µM [inhibitor, full curve, poor fit], CCCn1c(SCC(=O)Nc2nonc2C)nnc1-c1ccoc1C 89.1 µM [inhibitor, single point], COCC(C)n1c(C)cc(C(=O)COC(=O)c2ccc3ncsc3c2)c1C (stereo unspecified) 79.4 µM [inhibitor, partial curve]

Potency, active:
Cc1ccc(C)c(-n2c(Cc3cccs3)n[nH]c2=S)c1 10 µM, Cc1cccnc1NCc1ccc(O)c2ncccc12 22.4 µM, O=C(N[C@@H](Cc1ccccc1)C(=O)OCc1ccccc1)c1nc[nH]c1C(=O)N1CCNCC1 50.1 µM, COc1cc(OC)c(OC)cc1CN1CCN(Cc2cccn2C)CC1 3.55 µM, CCOC(=O)C(C(=O)OCC)C(C)(C)/C(C)=N\Nc1ccc([N+](=O)[O-])cc1[N+](=O)[O-] 31.6 µM, Cc1ccc(C)c(N=Nc2ccc(O)c3ncccc23)c1 8.91 µM, S=C(N/N=C/c1ccccc1)N1CCOCC1 89.1 µM, O=C(c1cc(-c2ccco2)on1)N1CCc2ccccc2C1 50.1 µM, CCOc1ccc(CCNC(=O)C2CCN(C(=O)N(C)C)CC2)cc1OCC 89.1 µM, N#Cc1c(SCC(=O)Nc2nncs2)sc2c(O)cc(=O)[nH]c12 25.1 µM, COc1cc(/C=C2/SC(=S)N(Cc3ccccc3)C2=O)ccc1O 39.8 µM, Cc1ccc(S(=O)(=O)c2nc(-c3ccccc3)oc2N2CCCC2)cc1 28.2 µM
